Results: PubChem BioAssay AID743279 (National Center for Advancing Translational Sciences (NCATS), 2014)
Screen size: about 360,000 compounds; about 17,000 (4.7%) were called active. Inconclusive means that the source gave no clear call. Such entries were picked first, then a sample of the others. Rule as the data show it: active = activity change below about -50%; inconclusive = mostly about -30% to -49%; inactive = weaker than that.

Assay: qHTS for Inhibitors of Inflammasome Signaling: IL-1-beta AlphaLISA Primary Screen
Conditions: THP-1 LPS/ATP IL-1B secretion, 16 h; at 57.5 µM, active compounds read low
Procedure, shortened: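 THP-1 cells pretreated 1 hr with compounds (up to 57.5 uM final), then stimulated with LPS (250 ng/mL final) plus ATP (1.25 mM final); secreted IL-1B measured by AlphaLISA after 16 hr, decreased signal indicating inhibition.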
% is scaled to controls: 0 for no effect and ±100 for the full control effect.

Activity change, inconclusive:
O=C1Nc2ccccc2N=C(c2ccccc2)C1N(C(=O)c1ccnc2ccccc12)c1ccccc1 (stereo unspecified) -47.7%
Cc1ccc(CNC(=O)c2ccc(Cn3nc(C)c(Cl)c3C)o2)cc1 -39.1%
CC(C)(CN1CCC(Cc2ccccc2)CC1)NS(=O)(=O)c1ccccc1 -37.9%
CCC(=C(c1ccc(OC)cc1)c1ccc(OC)cc1)c1cn(CC(O)CN(CCO)CCO)c2ccccc12 (stereo unspecified) -38.7%
CC(=O)Nc1sc(-c2ccc(Cl)cc2)nc1-c1ccccc1 -32.4%
CC[C@@]12C(=O)N(c3cccc(Br)c3)C(=O)N1[C@H](c1ccc(F)cc1)[C@@H]1C(=O)N(C3CCCCC3)C(=O)[C@@H]12 -31.2%
Cc1cccc(/C=C2\CS/C(=C\c3cccc(C)c3)C2=O)c1 -38%
Cc1ccc(CNC(=O)Cn2ccc3cc(S(=O)(=O)N4CCCCCC4)ccc32)cc1 -37.6%
O=C(C[n+]1cccc(CNC(=O)c2ccc(OC(F)F)cc2)c1)Nc1ccc(SC(F)F)cc1 -36%
O=C(O)c1ccc(COc2ccc([N+](=O)[O-])cc2Cl)cc1 -38.1%
Cc1ccc(S(=O)(=O)N2CCOCC2)cc1NC(=O)COc1ccccc1Cc1ccccc1 -32.3%
CCc1cccc(CC)c1NC(=O)c1cc(CN2C(=O)c3ccccc3C2=O)ccc1OC -47.6%
CCCCOc1ccc(CON(C(C)=O)C(C)=O)cc1Cl -33.8%
COC(=O)CSc1nsc(SCC(=O)OC)n1 -36%
Cc1ccc2c(c1)C=CC(C#N)N2C(=O)Oc1ccccc1 (stereo unspecified) -34.9%
COc1ccc(N2CCN(c3ccc(NC(=O)NN)cc3)CC2)cc1 -32.7%
COc1cc(CN2CCN(c3cccc(C)c3C)CC2)cc(Br)c1O -37.2%
CN(C)/C=C/C(=O)/C=C/c1ccc(Cl)cc1Cl -36.3%
COc1ccc(C2CC(c3ccccc3)=NN2C(=O)CSc2ncccn2)cc1 (stereo unspecified) -31.9%
Cc1ccc(S(=O)(=O)c2nc(-c3ccccc3)oc2NCc2cccnc2)cc1 -45.9%
Cc1cccc(-c2ccc(NC(=O)C3CCN(CC4CC4)CC3)cc2)c1 -31.2%
CN1CCN(c2nc(-c3ccc(Cl)cc3Cl)nc3ccccc23)CC1 -30.9%
CC(C)CNS(=O)(=O)c1cc(C(=O)OCC(=O)N(C)C2CCS(=O)(=O)C2)c(Cl)cc1Cl (stereo unspecified) -30.3%
Cc1cc2nc(-c3ccc4c(c3)CCC4)ccn2n1 -35.7%
Cc1cc(C)c(S(=O)(=O)Nc2ccc3c(c2)CCC3)c(C)c1 -48.1%
CN(C)Cc1ncccc1Oc1nc2cc(-c3cccc(Cl)c3)sc2c(=O)n1C -35.8%
CC(C)Nc1nnc(SCC(=O)/C=C2\N(C)c3ccccc3C2(C)C)s1 -35.6%
COCCOC(=O)C1=C(C)NC(=O)NC1c1ccc(Cl)cc1 (stereo unspecified) -42.5%
CN(Cc1ccc(F)cc1)C(=O)COc1ccccc1-c1ccccc1 -41.8%
Cc1cc(C(=O)O[C@H]2[C@H](Cc3ccccc3)NS(=O)(=O)[C@H]3C[C@@H]4C=C[C@]23O4)ccc1[N+](=O)[O-] -41.8%
CCc1ccc(NC(=S)N(CCN2CCCCC2)Cc2ccco2)cc1 -43.2%
COc1ccc(C2(c3ccc(OC)cc3)NC(=O)N(CC(=O)NCC(C)c3ccccc3)C2=O)cc1 (stereo unspecified) -43.4%
O=C1c2ccccc2C(=O)N1CCc1c(-c2ccccc2)[nH]c2ccccc12 -48.7%
Cc1ccc2cc3cc(C(=O)NCCCN4CCCC4=O)oc3nc2c1 -36.7%
O=C(Nc1nc2cc3c(cc2s1)OCCO3)c1ccco1 -36.8%
CCOC(=O)c1sc2nc(N3CCOCC3)c3c(c2c1N)CCC3 -35.2%
CC(C)c1ccc(CNc2ccc(N3CCOCC3)cc2)cc1 -35.9%
COc1ccc(C2CC(O)(c3ccccc3)Oc3cc(OC)ccc32)cc1 (stereo unspecified) -37.1%
CC(=O)c1c(N2CCN(C)CC2)[nH]c(-c2ccccc2)nc1=S -37.9%
Cc1ccc2nc(Nc3ccccc3)c(/C=N/O)c(=O)n2c1 -32.7%
O=C(C[n+]1cc(-c2ccc(Cl)cc2)n2c1CCC2)Nc1nc(-c2ccccc2)cs1 -33%
CN(C(=O)COC(=O)c1cc(S(=O)(=O)N2CCOCC2)c(Cl)cc1Cl)C1CCS(=O)(=O)C1 (stereo unspecified) -32.8%
Cn1c(=N)n(CC(=O)c2ccc(Cl)c(Cl)c2)c2ccccc21 -49.2%

Activity change, inactive:
COc1ccccc1OCC(=O)Nc1nonc1NC(=O)COc1ccccc1OC 3.74%
O=C(O)C1CC=CCC1C(=O)NC1CCCCC1 (stereo unspecified) -5.58%
CC(O)(c1cccnc1)c1nc(-c2ccc3c(c2)OCO3)cs1 (stereo unspecified) 22%
CC(C)C(=O)Nc1ccc(C(=O)Nc2ccc(Br)cc2F)cc1 -10.4%
O=C(CNC(=O)c1ccc(Cl)cc1Cl)NCCCn1ccnc1 -0.983%
COc1ccc(-c2n[nH]c(=S)n2-c2ccc(C)cc2C)cc1 41.2%
Cc1cc(C)n2nc(CCCO)nc2n1 9.8%
CCC(=O)Nc1cc(C(=O)OCC(=O)c2ccccc2)ccc1C 8.02%
O=C(NCc1cccs1)C1CCN(S(=O)(=O)c2cccc([N+](=O)[O-])c2)CC1 9.63%
COc1ccc(NC(=O)Nc2cc(C)ccc2OC)cc1 -16.3%
COc1ccc(NC(=O)CSc2nccn2Cc2ccc(F)cc2)c(OC)c1 19.8%
Cc1ccc(C)c(S(=O)(=O)c2c[nH]c(=S)[nH]c2=O)c1 1.42%
Cc1ccc(S(=O)(=O)N2CCOCC2)cc1NS(=O)(=O)c1ccc(F)c(F)c1 51.3%
CCOC(=O)c1cccc(NC(=O)/C=C/c2cccc([N+](=O)[O-])c2)c1 -9.66%
CCN1C(=O)/C(=C/c2ccc(OC)c(OC)c2)N=C1SCC(=O)NCc1ccco1 -13.7%
CC(C)(C)C(=O)Oc1ccc2cc(-c3ccc4ccccc4n3)c(=O)oc2c1 40.9%
CC1(C)CC(=O)N(c2ccc(Cl)c(Cl)c2)C(=O)C1 9.9%
N#Cc1cnn(-c2ccc([N+](=O)[O-])cc2[N+](=O)[O-])c1N 33.6%
C[C@@]12C(=O)N(Cc3ccco3)CC(=O)N1[C@H]1c3ccccc3OC[C@@H]1[C@@H]2c1ccccc1 -26.6%
COc1ccc(NC(=O)c2cc(-c3ccc(OC)c(OC)c3)on2)cc1OC -0.865%
CSc1ccccc1C(=O)NCCSc1ccccc1 -24.1%
C=CCc1cccc(/C=N/NC(=O)c2ccccc2Br)c1O 276%
COC(=O)c1sc(NC(=O)c2cc(-c3ccccc3)nc3ccccc23)c(C#N)c1C 7.23%
O=C(NCc1ccccc1)C(c1cc2ccccc2o1)n1c(=O)c(-c2cc3ccccc3[nH]2)nc2ccccc21 (stereo unspecified) 63.6%
CCN(CC)C(=O)Cn1cc(SCC(=O)NC)c2ccccc21 -5.1%
Cc1nc(C(=O)NC2CC2)sc1C1(C)CC(c2ccccc2)=NO1 (stereo unspecified) 0.853%

Activity change, active:
O=C1NC[C@H](Cc2ccccc2)N(C[C@@H]2CCCN2C[C@H](Cc2ccccc2)N2C[C@H](Cc3ccccc3)N(CC3CCCCC3)C(=O)C2=O)C1=O -76.6%
O=C(Nc1ccc(N2CCN(Cc3ccccc3F)CC2)cc1)c1ccc([N+](=O)[O-])o1 -103%
N=c1ccn(CC(=O)c2ccc(-c3ccccc3)cc2)cc1 -69.2%
CCOC(=O)c1ccc(-n2c(=O)[nH]c3ccccc3c2=O)cc1 -60.4%
CCN1C(=O)c2ccccc2Sc2ccc(C(=O)NCCCN(CC(C)C)CC(C)C)cc21 -64.5%
O=C(Nc1ccc(-c2cn3ccccc3n2)cc1)c1cccs1 -93.4%
Cc1ccc(CSc2nnc(-c3ccc(NS(=O)(=O)c4ccccc4)cc3)o2)cc1 -57.2%
CCN(CC)S(=O)(=O)c1ccc2nc(CCl)[nH]c2c1 -81.7%
CC1(c2ccc(Cl)c(Cl)c2)NC(=S)N2C1NC(=S)N2c1ccccc1 (stereo unspecified) -72.8%
c1ccc2c(c1)OCCOCCOCCOCCOCCOc1ccccc1OCCOCCOCCO2 -73.2%
COc1ccc(C)c2sc(N(CCN(C)C)C(=O)c3ccc4ccccc4c3)nc12 -54.5%
CC[n+]1c(/C=C/c2ccc(N(C)C)cc2)ccc2ccccc21 -98.9%
CCOC(=O)CSc1nc(=O)n2cccc(C)c2n1 -96.6%
C=C1CC2(CC(c3ccccc3)OC(c3ccccc3)C2)OC1=O (stereo unspecified) -115%
CC(C)(C)c1ccc(SC2=C[C@@]3(O)CC[C@@H](O)[C@@](Sc4ccc(C(C)(C)C)cc4)(C2=O)[C@H]3O)cc1 -89.6%
Cc1nc(N)nc(N)c1CCCc1ccc(Cl)c(Cl)c1 -104%
S=C(c1ccc(-c2ccc(Cl)cc2)o1)N1CCCCC1 -51.6%
